The campaign covered roughly 320,000 compounds. About 200 (0.062%) were called active. The inconclusive results got no clear call from the source; some entries with a clear call stand among them for comparison. Calls follow the shape of the dose curve; as a rule, active = well fitted activation curve with a large enough effect; inconclusive = small, poorly fitted or top-dose-only effect; inactive = no such curve, though single readings can be large or run the other way. No potency is given beside an inconclusive call; the fits are too rough.
Test: qHTS assay for re-activators of p53 using a Luc reporter; also: nearly all actives have a fitted effect of over 45% in size; as to activity change, positive = activation: % of control where 0% means no effect
Settings: H1299 p53-A138V BP100-luciferase reporter, luminescence, 24 h; series mostly up to 92.2 µM; activity change, positive = activation: at the top concentration
In short: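 H1299 (p53-null), stable ts p53-A138V + BP100-Luc; 1000 cells/well, Opti-MEM/10% FBS; cpd 4 pt, 1:5; 24 h, 37 deg C, 5% CO2; detection reagent 10 min RT; luminescence.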
Potency is read from the fitted curve at half-maximal effect; tags tell the direction and shape of the fitted curve.

Q: For Cc1ccc(F)cc1NC(=O)N1CCN(C2c3ccccc3-c3ccccc32)CC1, which “activity change, positive = activation” value is on record?
A: inactive: -4.07%

Q: With O=C1Nc2ccccc2C1(c1ccccc1)c1ccccc1 as the compound, how does the Potency read?
A: inconclusive [activator, single point]

Q: Which Potency does the source give for CC1CN(C(=O)c2ccc(-c3ccccc3Cl)o2)CC(C)O1 (stereo not given) here?
A: inconclusive [activator, partial curve, poor fit]

Q: Which “activity change, positive = activation” value does the source give for CCOC(=O)c1ccc(Nc2ncnc3nc[nH]c23)cc1 here?
A: inactive: 50.9%

Q: With O=c1oc2ccccc2c(Nc2ccc(Cl)cc2)c1[N+](=O)[O-] as the compound, how does the “activity change, positive = activation” value read?
A: inactive: 2.28%

Q: For COc1cc([C@@H]2c3cc4c(cc3[C@@H](NC3CCN(Cc5ccccc5)CC3)[C@H]3COC(=O)[C@H]23)OCO4)cc(OC)c1O, which “activity change, positive = activation” value is on record?
A: inactive: 2.38%

Q: For COc1ccccc1NC(=S)NNC(=O)c1ccc(Cl)cc1Cl, which Potency is on record?
A: inconclusive [activator, full curve, poor fit]

Q: With O=C(Cn1cnc2scc(-c3ccccc3)c2c1=O)NCc1ccco1 as the compound, how does the Potency read?
A: inconclusive [activator, single point]

Q: Which “activity change, positive = activation” value does the source give for O=C(O)c1ccc(/C=N/Nc2ncc(C(F)(F)F)cc2Cl)cc1 here?
A: inactive: 2.09%

Q: For CCNS(=O)(=O)c1ccc(NC(=S)NCc2ccco2)cc1, which “activity change, positive = activation” value is on record?
A: inactive: -8.06%

Q: For COc1ccc(N2CCN(C(=O)Nc3cccc(C(F)(F)F)c3)CC2)cc1, which “activity change, positive = activation” value is on record?
A: inactive: -6.06%

Q: Which “activity change, positive = activation” value does the source give for Cc1cc(C)c2c(n1)SCC(=O)N2CC(=O)Nc1ccc(Br)c(C)c1 here?
A: inactive: -10.2%

Q: With O=C(C1CCC(CNS(=O)(=O)c2cccs2)CC1)N1CCN(c2ccc(F)cc2)CC1 (stereo not given) as the compound, how does the “activity change, positive = activation” value read?
A: inactive: -3.51%

Q: For CCOC(=O)c1c(NC(=S)NC(C)=O)sc(C)c1C, which “activity change, positive = activation” value is on record?
A: inactive: 10.2%

Q: Which “activity change, positive = activation” value does the source give for COc1ccc(C(=O)NC(=S)Nc2nnn(C)n2)cc1 here?
A: inactive: -1.91%

Q: Which “activity change, positive = activation” value does the source give for Cc1ccc2nc(Cl)c(/C=N/NC(=O)c3ccccc3O)cc2c1 here?
A: inactive: 12.5%

Q: With O=C(N/N=C\c1cccc(OC(=O)c2ccco2)c1)c1ccc2c(c1)OCO2 as the compound, how does the Potency read?
A: inconclusive [activator, full curve, poor fit]

Q: With O=C(NCc1ccccc1CN1CCCC1)c1cc2cc(Cl)ccc2o1 as the compound, how does the Potency read?
A: inconclusive [activator, single point]

Q: With O=C(CSc1ccccc1)N1CCN(c2ccccc2)CC1 as the compound, how does the Potency read?
A: inconclusive [activator, partial curve, poor fit]

Q: For Cc1ccc(Nc2cccccc2=O)cc1, which Potency is on record?
A: inconclusive [activator, partial curve, poor fit]

Q: With CCn1c(C(=O)NC2CCC(C)CC2)cc2sccc21 (stereo not given) as the compound, how does the Potency read?
A: inconclusive [activator, partial curve, poor fit]

Q: Which “activity change, positive = activation” value does the source give for NC(=S)N/N=C/c1cccc(Br)c1 here?
A: inactive: -9.95%

Q: With CC(C)c1ccc2nc3sc(C(=O)N4CCc5ccccc5C4)c(N)c3cc2c1 as the compound, how does the Potency read?
A: inconclusive [activator, partial curve, poor fit]

Q: Which “activity change, positive = activation” value does the source give for CC(=O)c1ccc(NC(=S)NCCCN2CCOCC2)cc1 here?
A: inactive: -0.965%

Q: For CN(C)C(=O)c1ccc(NC(=O)c2cncc(Br)c2)cc1, which Potency is on record?
A: inconclusive [activator, partial curve]

Q: With Oc1ccc(Nc2nc(-c3ccccc3)nc3ccccc23)cc1 as the compound, how does the “activity change, positive = activation” value read?
A: inactive: -1.05%

Q: With COc1ccc(Cn2c(=O)oc3ccccc32)cc1F as the compound, how does the “activity change, positive = activation” value read?
A: inactive: 6.4%

Q: Which “activity change, positive = activation” value does the source give for Cc1ccc(-n2c(-c3nn(C)cc3Cl)n[nH]c2=S)cc1 here?
A: inactive: 0.42%

Q: Which Potency does the source give for Cc1ccc([N+](=O)[O-])c(OCCN2CCc3ccccc3C2)c1 here?
A: inconclusive [activator, single point]

Q: Which Potency does the source give for Cc1ccnc(SCC(=O)N2CCc3ccccc32)n1 here?
A: inconclusive [activator, partial curve, poor fit]

Q: For CC(C)CC(NC(=O)CCC(=O)OCC(=O)[C@@]1(O)CCC2[C@@H]3CCC4=CC(=O)C=C[C@]4(C)C3[C@@H](O)C[C@@]21C)C(=O)O (stereo not given in full), which “activity change, positive = activation” value is on record?
A: inactive: -0.0697%

Q: Which Potency does the source give for Fc1ccc(COc2ccc(/C=N/n3cnnc3)cc2)cc1 here?
A: inconclusive [activator, single point]

Q: Which Potency does the source give for N#Cc1ccccc1OCC(=O)Nc1ccc2c(c1)OCCO2 here?
A: inconclusive [activator, partial curve, poor fit]

Q: For CC(=O)c1cccc(OCC(=O)NC2CCCCCC2)c1, which Potency is on record?
A: inconclusive [activator, single point]

Q: Which Potency does the source give for COc1ccc2oc(=O)cc(C)c2c1 here?
A: inconclusive [activator, single point]

Q: Which Potency does the source give for O=C(OCC(=O)N1CCCc2ccccc21)c1cccnc1Cl here?
A: inconclusive [activator, single point]

Q: For Cc1ccc(C2=CC(c3ccc(N(C)C)cc3)n3nnnc3N2)cc1 (stereo not given), which Potency is on record?
A: inconclusive [activator, partial curve, poor fit]

Q: With CCCn1nnc(NC(=O)c2ccc(Br)cc2)n1 as the compound, how does the Potency read?
A: inconclusive [activator, partial curve, poor fit]

Q: Which “activity change, positive = activation” value does the source give for CCCn1nc(C(=O)NNC(=O)c2cc(S(=O)(=O)NC)ccc2Br)c2ccccc2c1=O here?
A: inactive: -2.81%

Q: With COc1ccc2nc(NC(=S)N(C)C)sc2c1 as the compound, how does the Potency read?
A: inconclusive [activator, partial curve, poor fit]

Q: For Cc1cc(C)cc(-n2ccnc2SCC(=O)Nc2nccs2)c1, which “activity change, positive = activation” value is on record?
A: inactive: 2.43%

Q: Which “activity change, positive = activation” value does the source give for CSc1ccccc1OCc1cc(C(=O)N(Cc2nccn2C)C(C)C)no1 here?
A: inactive: 16.7%

Q: Which Potency does the source give for Cc1c(N2C(=O)/C(=C\c3ccccc3O)SC2=S)c(=O)n(-c2ccccc2)n1C here?
A: inconclusive [activator, partial curve, poor fit]

Q: For NC(=S)N/N=C/c1ccc(C(F)(F)F)cc1, which “activity change, positive = activation” value is on record?
A: inactive: 12.8%

Q: For O=C1CCCCCN1Cc1nnc(SCc2nc3ccccc3s2)n1-c1ccccn1, which “activity change, positive = activation” value is on record?
A: inactive: 11.6%

Q: With O=C(O)CSCc1nc2ccccc2s1 as the compound, how does the Potency read?
A: inconclusive [activator, partial curve, poor fit]

Q: For O=C(Nc1ccccc1Cl)c1cc(=O)c2ccccc2o1, which Potency is on record?
A: inconclusive [activator, single point]

Q: With Cc1occc1C(=O)NNC(=S)Nc1cccc([N+](=O)[O-])c1 as the compound, how does the Potency read?
A: inconclusive [activator, single point]

Q: Which Potency does the source give for COCC(=O)Nc1ccccc1C(=O)Nc1ccc(OC)cc1 here?
A: inconclusive [activator, partial curve, poor fit]

Q: Which Potency does the source give for Oc1cccc(C=NCc2ccccc2)c1O here?
A: inconclusive [activator, partial curve, poor fit]

Q: With C=CCn1nnc2sc3c(c2c1=O)CCC(C)C3 (stereo not given) as the compound, how does the Potency read?
A: inconclusive [activator, partial curve, poor fit]

Q: For Cc1ccccc1NC(=O)c1ccc(OCC(=O)Nc2ccccc2F)cc1, which “activity change, positive = activation” value is on record?
A: inactive: -2.73%

Q: Which Potency does the source give for CC(=O)N1CCN(c2ccc(NCc3ccccc3)cc2)CC1 here?
A: inconclusive [activator, single point]

Q: For COc1ccc(Nc2ccc(C(F)(F)F)cc2[N+](=O)[O-])cn1, which Potency is on record?
A: inconclusive [activator, partial curve, poor fit]

Q: Which “activity change, positive = activation” value does the source give for COc1ccccc1N1CCN(C(=O)CSc2nnc(C)n2C2CC2)CC1 here?
A: inactive: -3.81%

Q: Which “activity change, positive = activation” value does the source give for COc1cccc(NC(=S)N(CCc2c(C)[nH]c3ccc(C)cc23)Cc2cccs2)c1 here?
A: inactive: 1.08%

Q: Which “activity change, positive = activation” value does the source give for C/C(=N/NC(=O)c1ccoc1C)c1cccc(NC(=O)C(F)(F)F)c1 here?
A: inactive: 17.1%

Q: Which Potency does the source give for N#C/C(=C1/CCCCCN1)c1nc2ccccc2s1 here?
A: inconclusive [activator, partial curve, poor fit]

Q: With Cc1c(O)cc2c(c1O)C(=O)CC(c1ccccc1)O2 (stereo not given) as the compound, how does the “activity change, positive = activation” value read?
A: inactive: 3.01%

Q: With O=C1C=C(Nc2ccccc2)C(=O)c2ccccc21 as the compound, how does the Potency read?
A: inconclusive [activator, partial curve, poor fit]

Q: For S=C(NC1CCCCC1)N1CCc2ccccc2C1, which Potency is on record?
A: inconclusive [activator, partial curve, poor fit]

Q: For O=C(NC1CCCCCCC1)c1ccc(F)cc1, which Potency is on record?
A: inconclusive [activator, partial curve, poor fit]

Q: For Cc1cc(C=C2C(=O)c3ccccc3C2=O)c(C)n1C, which Potency is on record?
A: inconclusive [activator, full curve, poor fit]

Q: With COc1ccc(OC)c(/C=C2\SC(N3CCCC(C)C3)=NC2=O)c1 (stereo not given) as the compound, how does the “activity change, positive = activation” value read?
A: inactive: 3.44%

Q: With Cc1c(CCOC(=O)CC23CC4CC(CC(C4)C2)C3)sc[n+]1CC(=O)c1ccccc1 as the compound, how does the “activity change, positive = activation” value read?
A: inactive: -11.6%

Q: For CC(=O)Nc1ccc(NC(=S)NC(=O)/C=C/c2ccccc2)cc1, which “activity change, positive = activation” value is on record?
A: inactive: 1.32%

Q: For Cc1ccc2nc(NCc3ccccc3)[nH]c2c1, which Potency is on record?
A: inconclusive [activator, full curve, poor fit]

Q: For CCCCC(=O)Nc1sc2c(c1C#N)CC(C)(C)OC2, which Potency is on record?
A: inconclusive [activator, partial curve, poor fit]

Q: With COc1ccc(-c2csc3ncnc(N4CCN(c5ccccc5Cl)CC4)c23)cc1 as the compound, how does the “activity change, positive = activation” value read?
A: inactive: -24.5%

Q: For O=C(CCl)Nc1cccc2ncccc12, which Potency is on record?
A: inconclusive [activator, partial curve, poor fit]

Q: With CCOc1ccccc1C(=O)NCC(=O)OCc1csc(CC(=O)Nc2ccc(C)cc2)n1 as the compound, how does the Potency read?
A: inconclusive [activator, partial curve, poor fit]

Q: With O=C(OCC(=O)N1CCC(Cc2ccccc2)CC1)c1ccccc1F as the compound, how does the Potency read?
A: inconclusive [activator, single point]

Q: For C=CCN1c2ccccc2[C@]23C[C@@H](C(=O)OC)N(C(C)=O)C2=NC(C(=O)OC)=C(C(=O)OC)[C@H]13, which “activity change, positive = activation” value is on record?
A: inactive: -3.31%

Q: With S=C(NCCc1cccc(Cl)c1)NC1CCCCC1 as the compound, how does the Potency read?
A: inconclusive [activator, partial curve, poor fit]

Q: For Cn1ccnc1SCC(=O)N1CCc2ccccc21, which Potency is on record?
A: inconclusive [activator, partial curve, poor fit]

Source: PubChem BioAssay AID504706 (National Center for Advancing Translational Sciences (NCATS), 2011)
